In publication PMC4336329 (PLoS ONE, 2015):
The whole screen tested about 310,000 compounds, of which about 2,200 (0.71%) showed an effect of 50% or more. The effect is printed as a negative number. The list shows a part of the results.

These compounds were tested against human ether-à-go-go-related gene (hERG) potassium channel (human, UniProt Q12809) (assay: primary screen, population patch clamp on CHO cells stably expressing hERG).
Chain of human ether-à-go-go-related gene (hERG) potassium channel (Q12809 whole entry, looked up): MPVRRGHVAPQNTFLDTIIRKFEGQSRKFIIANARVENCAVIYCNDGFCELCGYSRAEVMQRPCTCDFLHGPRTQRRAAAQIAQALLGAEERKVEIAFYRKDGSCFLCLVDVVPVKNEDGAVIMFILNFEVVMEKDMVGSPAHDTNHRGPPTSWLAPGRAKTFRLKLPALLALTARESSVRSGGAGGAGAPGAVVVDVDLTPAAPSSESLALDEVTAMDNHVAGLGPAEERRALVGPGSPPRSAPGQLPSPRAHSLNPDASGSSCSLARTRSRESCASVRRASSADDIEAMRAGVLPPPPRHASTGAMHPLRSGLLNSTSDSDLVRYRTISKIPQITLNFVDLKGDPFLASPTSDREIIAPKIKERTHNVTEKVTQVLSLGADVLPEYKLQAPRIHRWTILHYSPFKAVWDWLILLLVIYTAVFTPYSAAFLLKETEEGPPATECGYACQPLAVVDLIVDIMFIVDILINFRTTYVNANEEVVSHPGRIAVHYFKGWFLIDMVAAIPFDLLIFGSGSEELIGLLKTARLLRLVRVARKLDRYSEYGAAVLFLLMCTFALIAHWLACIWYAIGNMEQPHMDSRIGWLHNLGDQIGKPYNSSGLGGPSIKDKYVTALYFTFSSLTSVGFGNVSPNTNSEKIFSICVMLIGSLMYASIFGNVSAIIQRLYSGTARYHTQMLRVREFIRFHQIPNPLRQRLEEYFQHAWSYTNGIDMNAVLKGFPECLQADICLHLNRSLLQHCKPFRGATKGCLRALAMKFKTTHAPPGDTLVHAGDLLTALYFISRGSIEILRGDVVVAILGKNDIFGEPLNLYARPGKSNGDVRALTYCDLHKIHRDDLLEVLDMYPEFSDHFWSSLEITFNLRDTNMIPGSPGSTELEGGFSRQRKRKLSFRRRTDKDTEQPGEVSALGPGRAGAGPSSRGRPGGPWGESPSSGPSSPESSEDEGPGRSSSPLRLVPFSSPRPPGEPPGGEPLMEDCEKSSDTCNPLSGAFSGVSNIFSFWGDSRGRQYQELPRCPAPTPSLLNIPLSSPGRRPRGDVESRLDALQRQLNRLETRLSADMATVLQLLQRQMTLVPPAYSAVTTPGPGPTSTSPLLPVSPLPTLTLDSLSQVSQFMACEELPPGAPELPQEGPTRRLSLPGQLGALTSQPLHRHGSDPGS

| Structure (SMILES) | hERG current change (%, negative = inhibition) at 1uM [%] |
| --- | --- |
| COc1ccc(-n2nc(C(=O)NCC(=O)N3CC(C)CC(C)C3)c3ccccc3c2=O)c(OC)c1 (stereo not shown) | 5.75 |
| O=S(=O)(NC1CC1)c1ccc(S(=O)(=O)N2CCN3CCCC3C2)cc1 (stereo not shown) | 9.94 |
| Cc1ccccc1NC(=O)c1cccc(S(C)(=O)=O)c1 | 10 |
| CCCc1cc(=O)oc2cc(C)cc(OCC(=O)NCc3ccncc3)c12 | -48 |
| COc1c(O)cc2c(c1O)C1OC(CO)C(O)C(O)C1OC2=O.O (stereo not shown) | 2.31 |
| CCCN1CCc2c(sc(NC(=O)c3ccc(S(=O)(=O)N4CCN(C(=O)OCC)CC4)cc3)c2C(N)=O)C1 | 9.17 |
| Cc1ccc(OCC(=O)NCCS(=O)(=O)N2CCN(c3ccccc3)CC2)cc1 | 0.887 |
| CCOc1cc(/C=C2/C(=N)N3C=CSC3=NC2=O)ccc1OCCCOc1ccccc1C | 12.3 |
| Cc1ccc(Nc2nnc(-c3ccccc3N)o2)cc1C | 16.8 |
| O=S(=O)(c1ccc(Br)cc1Cl)N1CC[NH+](CCO)CC1.[Cl-] | 6.69 |
| COC(=O)c1oc2ccc(Br)cc2c1-n1cccc1 | 9.79 |
| COc1ccc(-c2csc(NC(=O)CCS(=O)(=O)c3ccccc3)n2)c(OC)c1 | 8.63 |
| CCOC(=O)C1CCN(C(=O)CCNS(=O)(=O)c2ccc3c(c2)CCN3C(=O)CC)CC1 | 12.3 |
| Cc1cc(Cl)ccc1Oc1ccc(C(N)=O)cc1[N+](=O)[O-] | 16.2 |
| O=C(CN1C(=O)COc2ccc(Cl)cc21)Nc1ccc2c(c1)OCCO2 | 14.2 |
| Cc1c(C)c(C)c(C(=O)CCc2cccc(NC(=O)CCC(=O)O)c2)c(C)c1C | 3.31 |
| CCn1c(SCC(=O)N2CCCCC2)nc2c(c1=O)SC(C)C2 (stereo not shown) | 9.77 |
| COc1ccc(/C=N/N2CCOCC2)cc1O | 6.81 |
| S=C(c1ccc(N2CCCC2)cc1)N1CCCCC1 | 13 |
| CC1(c2cccc(Br)c2)NC(=O)N(CC(=O)Nc2ccc(F)cc2)C1=O (stereo not shown) | 8.46 |
| O=C(CC(C(=O)O)C1CCCO1)NCCc1ccc2c(c1)OCO2 (stereo not shown) | -5.37 |
| COc1ccc2ccccc2c1/C=N/NC(=O)c1cccc(Br)c1 | 16.5 |

| Structure (SMILES) | hERG current change (%, negative = inhibition) at 1uM [%] |
| --- | --- |
| CC(=O)NCC(=O)OCC(=O)c1ccc(Br)cc1 | 13.2 |
| CCc1noc(C)c1C(=O)NNC(=O)c1cc(OC)cc(OC)c1 | 9.15 |
| N#C/C(=C\c1ccc2c(c1)OCCO2)C(=O)Nc1nccs1 | 18.4 |
| Cc1cc([N+](=O)[O-])nn1CCCC(=O)Nc1cc(Oc2ccccc2)cc([N+](=O)[O-])c1 | -3.87 |
| CC(C)C(NS(=O)(=O)c1cccs1)C(=O)N1CCc2ccccc2C1 (stereo not shown) | 15.8 |
| COCCn1c(N)c(N(Cc2ccccc2)C(=O)CSCC(=O)Nc2ccc(C)cc2)c(=O)[nH]c1=O | 4.15 |
| Cc1ccc(N2C(=O)N(CC(=O)Nc3cc(F)ccc3C)C(=O)C2C)cc1 (stereo not shown) | 16.4 |
| Cc1cc(=O)[nH]c(SCC(=O)O)c1C#N | 17.8 |
| Cc1cc(C(=O)NC2CCCCC2)c2cc(F)ccc2n1 | 9.51 |
| Cc1cc(N2C(=O)C(O)=C(C(=O)c3ccco3)C2c2ccc(O)cc2)no1 (stereo not shown) | 16.3 |
| COc1cc(CCCN2C(N)=NC[C@@H]2Cc2ccccc2)cc(OC)c1OC | 14.3 |
| Cc1c(/C=N/NC(=O)c2cc(Br)ccc2O)c(=O)n(C)c(=O)n1C | 6.15 |
| Cc1ccc(C)c(S(=O)(=O)N2CCCOC2CNC(=O)C(=O)NCCC2=CCCCC2)c1 (stereo not shown) | 16.5 |
| Cc1cc(C)c(C#N)c(SCS(=O)c2ccc(C(C)(C)C)cc2)n1 (stereo not shown) | 8.89 |
| Cc1ccccc1N1CCN(C(=O)CN2C(=O)c3ccccc3C2=O)CC1 | 4.17 |
| CC1=C(C(=O)Nc2ccccc2)C(c2ccc(O)cc2)N2C(=O)CSC2=N1 (stereo not shown) | 2.2 |
| COc1ccc(Cn2c(=O)c3[nH]cnc3n(-c3ccccc3C)c2=O)cc1 | 6.75 |
| Cc1ccc(CNC(=O)C2CCC(=O)N(CCc3cccc(F)c3)C2)cc1 (stereo not shown) | -0.875 |
| COC(=O)/C(C#N)=C/c1c(N2CCN(c3ccc(OC)cc3)CC2)nc2c(C)cccn2c1=O | 8.7 |
| Cc1cc(SCc2cccc(Cl)c2)nc(=O)[nH]1 | 11.4 |
| CSCC[C@H](NC(=O)c1ccc(Br)o1)c1nnc2ccccn12 | 11.8 |
